Test results as given in PubChem BioAssay AID212 (DTP/NCI, 2004).
Results filed as inconclusive are left out. Not every entry of the source has a single result; some have several. They are shown here; other results are not. There may be further records. The values listed for one entry are repeated measurements in other runs, samples, wells, individuals or studies.

Tested on: BDF1 mice, colon carcinoma 38 sc, T/C %
Assay: NCI In Vivo Anticancer Drug Screen. Data for tumor model Colon Carcinoma 38 (subcutaneous) in B6D2F1 (BDF1) mice
Details: endpoint: median tumor weight (est.), higher = larger tumour
Experimental: The antitumor activity of compounds was measured in mice bearing transplantable tumors. Survival or tumor size were measured and the results are expressed as the measurement made in the treated group (T) divided by the measurement made in the vehicle treated control group (C). The tumor model used in this assay is Colon Carcinoma 38 (subcutaneous) in B6D2F1 (BDF1) mice

[1] = dose: 25.0 mg/kg/injection, schedule: Q07DX002 (ip), vehicle: Klucel (hydroxypropylcellulose) (HPC)
[2] = dose: 50.0 mg/kg/injection, schedule: Q07DX002 (ip), vehicle: saline with Tween-80
[3] = dose: 100.0 mg/kg/injection, schedule: Q07DX002 (ip), vehicle: saline with Tween-80
[4] = dose: 50.0 mg/kg/injection, schedule: Q07DX002 (ip), vehicle: water
[5] = dose: 25.0 mg/kg/injection, schedule: Q07DX002 (ip), vehicle: saline
[6] = dose: 12.5 mg/kg/injection, schedule: Q07DX002 (ip), vehicle: saline with Tween-80
[7] = dose: 25.0 mg/kg/injection, schedule: Q07DX002 (ip), vehicle: saline with Tween-80
[8] = dose: 200.0 mg/kg/injection, schedule: Q07DX002 (ip), vehicle: saline with Tween-80
[9] = dose: 100.0 mg/kg/injection, schedule: Q07DX002 (ip), vehicle: Klucel (hydroxypropylcellulose) (HPC)
[10] = dose: 400.0 mg/kg/injection, schedule: Q07DX002 (ip), vehicle: saline with Tween-80

O=C1c2ccccc2C(=O)c2c(NCCNCCO)ccc(O)c21
T/C (dose: 20.0 mg/kg/injection, schedule: Q07DX002 (ip), vehicle: suspension in saline): 47 % of control and 112 % of control
T/C (dose: 80.0 mg/kg/injection, schedule: Q07DX002 (ip), vehicle: suspension in saline): 53 % of control, 73 % of control, 95 % of control
T/C (dose: 160.0 mg/kg/injection, schedule: Q07DX002 (ip), vehicle: suspension in saline): 41 % of control, 91 % of control, 103 % of control

Cc1c(N)nc(C(CC(N)=O)NCC(N)C(N)=O)nc1C(=O)NC(C(=O)NC(C)C(O)C(C)C(=O)NC(C(=O)NCCc1nc(-c2nc(C(=O)NCCCNC(C)c3ccccc3)cs2)cs1)C(C)O)C(OC1OC(CO)C(O)C(O)C1OC1OC(CO)C(O)C(OC(N)=O)C1O)c1cnc[nH]1 (stereo not given)
T/C (dose: 4.0 mg/kg/injection, schedule: Q07DX002 (ip), vehicle: saline): 56 % of control and 102 % of control
T/C (dose: 8.0 mg/kg/injection, schedule: Q07DX002 (ip), vehicle: saline): 49 % of control and 104 % of control
T/C (dose: 16.0 mg/kg/injection, schedule: Q07DX002 (ip), vehicle: saline): 44 % of control and 167 % of control

CC1C=NNC1=O (stereo not given)
T/C [1]: 82 % of control and 171 % of control
T/C (dose: 800.0 mg/kg/injection, schedule: Q07DX002 (ip), vehicle: Klucel (hydroxypropylcellulose) (HPC)): 47 % of control and 77 % of control

CC(=O)Nc1ccc(C(=O)C=O)cc1
T/C [2]: 85 % of control and 112 % of control
T/C [3]: 61 % of control and 108 % of control

O=C(O)C1CC(c2ccccc2)=NN1c1ccccc1 (stereo not given)
T/C [4]: 96 % of control and 177 % of control

CONc1ccn(C2OC(CO)C(O)C2O)c(=O)n1 (stereo not given)
T/C [5]: 72 % of control and 106 % of control

O=CC=O
T/C [6]: 52 % of control and 151 % of control
T/C [7]: 56 % of control and 89 % of control
T/C [8]: 64 % of control and 108 % of control

Nc1nc(=S)c2[nH]cnc2[nH]1
T/C (dose: 2.0 mg/kg/injection, schedule: Q07DX002 (ip), vehicle: saline): 54 % of control and 92 % of control
T/C (dose: 4.0 mg/kg/injection, schedule: Q07DX003 (ip), vehicle: alkali diluted with saline): 12 % of control, 42 % of control, 55 % of control

CCOC1=Cc2c(oc3c(C(C)(C)C)cc(OCC)cc23)OC(C(C)(C)C)=C1
T/C (dose: 3.12 mg/kg/injection, schedule: Q07DX002 (ip), vehicle: saline with Tween-80): 26 % of control, 71 % of control, 113 % of control

CCCCc1ccc(-n2c(C)c(COC(=O)NC)c(COC(=O)NC)c2C)cc1
T/C (dose: 6.25 mg/kg/injection, schedule: Q07DX002 (ip), vehicle: Klucel (hydroxypropylcellulose) (HPC)): 124 % of control and 161 % of control
T/C (dose: 50.0 mg/kg/injection, schedule: Q07DX002 (ip), vehicle: Klucel (hydroxypropylcellulose) (HPC)): 75 % of control and 111 % of control
T/C [9]: 84 % of control and 112 % of control

O=S(=O)(c1ccccc1)N1CN2CCN(C2)C1
T/C [6]: 69 % of control and 109 % of control
T/C [3]: 82 % of control and 123 % of control
T/C [8]: 69 % of control and 115 % of control
T/C [10]: 47 % of control and 124 % of control

Nc1ccc(Cl)cc1N
T/C [2]: 61 % of control and 105 % of control
T/C [3]: 65 % of control and 122 % of control
T/C [8]: 76 % of control and 109 % of control
T/C [10]: 80 % of control and 120 % of control

O=C1CN(Cc2ccc3c(c2)OCO3)NO1
T/C [2]: 81 % of control, 108 % of control, 113 % of control
T/C [3]: 66 % of control, 107 % of control, 109 % of control
T/C [8]: 42 % of control, 57 % of control, 107 % of control
T/C [10]: 54 % of control and 112 % of control

Cc1c2ccccc2cc2cccc[n+]12
T/C (dose: 5.0 mg/kg/injection, schedule: Q07DX002 (ip), vehicle: saline): 57 % of control and 102 % of control

C1=CCOCOC1
T/C [2]: 68 % of control and 119 % of control

O/N=C/c1ccccc1O.O/N=C/c1ccccc1O.[Cu]
T/C [2]: 92 % of control and 121 % of control

CCOC(=O)[C@]1(Br)CC[C@@]1(Br)C(=O)OCC
T/C [7]: 60 % of control and 112 % of control

BrC[P+](CBr)(CBr)CBr
T/C [6]: 29 % of control and 92 % of control
T/C [7]: 50 % of control and 159 % of control

Cc1nn(CCO)c(C)c1N=[N+]([O-])c1c(C)nn(CCO)c1C
T/C [9]: 19 % of control and 84 % of control

Nc1nc(F)nc2c1ncn2C1OC(COP(=O)(O)O)C(O)C1O (stereo not given)
T/C [5]: 60 % of control and 103 % of control

CCC(CC)COC(=O)c1ccccc1C(=O)OCC(CC)CC
T/C [3]: 76 % of control and 164 % of control
T/C [8]: 53 % of control and 197 % of control
T/C (dose: 800.0 mg/kg/injection, schedule: Q07DX002 (ip), vehicle: saline with Tween-80): 66 % of control and 111 % of control

CN(C)C(=O)c1cccc(COc2ccc(N3C(N)=NC(N)=NC3(C)C)cc2Cl)c1
T/C (dose: 8.0 mg/kg/injection, schedule: Q07DX003 (ip), vehicle: saline): 83 % of control and 152 % of control
T/C (dose: 16.0 mg/kg/injection, schedule: Q07DX003 (ip), vehicle: saline): 54 % of control and 162 % of control

ClC1C(Cl)C(Cl)C(Cl)C(Cl)C1Cl (stereo not given)
T/C (dose: 225.0 mg/kg/injection, schedule: Q07DX002 (ip), vehicle: saline with Tween-80): 47 % of control and 94 % of control
T/C (dose: 900.0 mg/kg/injection, schedule: Q07DX002 (ip), vehicle: saline with Tween-80): 75 % of control and 109 % of control

COc1cc(O)c2c(O)c3c(c4c2c1[C@]1(C4)C(C)=CCCC1(C)C)[C@H](O)[C@@]1(O)CC(=O)C(C(N)=O)=C(O)[C@@]1(O)C3=O
T/C [6]: 49 % of control and 105 % of control

CN1N=C(N)c2cn(C3OC(COP(=O)(O)O)C(O)C3O)c3ncnc1c23 (stereo not given)
T/C (dose: 12.5 mg/kg/injection, schedule: Q07DX002 (ip), vehicle: water): 39 % of control and 81 % of control
T/C [4]: 44 % of control and 75 % of control

Cc1cc(C)c(-c2cc(O)c(C)cc2O)c(C)c1
T/C [1]: 43 % of control and 106 % of control
T/C [9]: 93 % of control and 174 % of control
T/C (dose: 200.0 mg/kg/injection, schedule: Q07DX002 (ip), vehicle: Klucel (hydroxypropylcellulose) (HPC)): 122 % of control and 180 % of control
T/C (dose: 400.0 mg/kg/injection, schedule: Q07DX002 (ip), vehicle: Klucel (hydroxypropylcellulose) (HPC)): 91 % of control and 159 % of control

COC(=O)[C@@H]1c2cc3c(c(O)c2[C@@H](OC)C[C@@]1(C)O)C(=O)c1c(O)cc2c(c1C3=O)OC1O[C@@]2(C)[C@H](O)[C@@H](N(C)C)[C@@H]1O
T/C (dose: 50.0 mg/kg/injection, schedule: Q07DX002 (ip), vehicle: saline): 58 % of control and 104 % of control
T/C (dose: 100.0 mg/kg/injection, schedule: Q07DX002 (ip), vehicle: saline): 18 % of control and 90 % of control

COc1cccc2c1C(=O)c1c(O)c3c(c(O)c1C2=O)C[C@@](O)(C(C)=O)C[C@@H]3OC1CC(N(Cc2ccccc2)Cc2ccccc2)C(O)C(C)O1 (stereo not given in full)
T/C (dose: 6.75 mg/kg/injection, schedule: Q07DX002 (ip), vehicle: saline with Tween-80): 78 % of control and 108 % of control
T/C (dose: 13.5 mg/kg/injection, schedule: Q07DX002 (ip), vehicle: saline with Tween-80): 45 % of control and 74 % of control

O=C1CCC(=O)N1CO
T/C (dose: 800.0 mg/kg/injection, schedule: Q07DX002 (ip), vehicle: saline): 72 % of control and 104 % of control

NC(=O)c1csc(C2OC(CO)C(O)C2O)n1 (stereo not given)
T/C (dose: 1600.0 mg/kg/injection, schedule: Q07DX002 (ip), vehicle: water): 56 % of control and 88 % of control

C=C1C(=O)C23[C@H](O)C1CC[C@H]2[C@]12COC3(O)[C@@H](O)[C@@H]1C(C)(C)CC[C@@H]2O
T/C [7]: 62 % of control and 103 % of control

O=C(Nc1nncs1)c1ccncc1
T/C [7]: 92 % of control and 123 % of control

COC(=O)[C@@]12OC[C@]34[C@H]([C@@H](O)[C@@H]1O)[C@@]1(C)CC(=O)C(O)=C(C)[C@@H]1C[C@H]3OC(=O)[C@H](OC(=O)/C=C(\C)C(C)C)[C@@H]24
T/C (dose: 1.0 mg/kg/injection, schedule: Q07DX003 (ip), vehicle: other): 54 % of control and 86 % of control
T/C (dose: 2.0 mg/kg/injection, schedule: Q07DX003 (ip), vehicle: other): 23 % of control and 56 % of control
